The source of these data is the antibiotic and cytotoxicity screens of Wong et al. (2023).

The other results are listed elsewhere or left out.

This experiment deals with S. aureus RN4220. Kind of experiment: growth inhibition call (relative growth <= 0.2). The conditions noted are these: 50 µM.
Take `COc1cccc(OCc2ccc(Cn3nc(NC(=O)Nc4c(OC)cccc4OC)c4ccccc43)cc2)c1`: the growth inhibition call was “inactive”.

`N=C(N)/N=C(\N)N1CCOCC1`: the growth inhibition call is “inactive”.

As to `O=C(C[C@H]1CC[C@H]2[C@@H](COC[C@@H](O)CN2S(=O)(=O)c2ccccc2)O1)NCCN1CCCCC1`, the growth inhibition call was “inactive”.

`CC(C)NC(=O)N(C)C[C@H]1OCc2cnnn2CCCC(=O)N([C@H](C)CO)C[C@@H]1C`: the growth inhibition call is “inactive”.

For the compound `C[C@@H]1CCCCO[C@H](CN(C)S(=O)(=O)c2ccc(F)cc2)[C@H](C)CN([C@H](C)CO)C(=O)c2cc(NC(=O)Nc3cccc4ccccc34)ccc2O1`, the growth inhibition call was “inactive”.

For `C[C@H]1CCCCO[C@H](CN(C)C(=O)Cc2ccccc2)[C@@H](C)CN([C@@H](C)CO)C(=O)c2cc(NS(=O)(=O)c3ccc(Cl)cc3)ccc2O1`, the growth inhibition call is “inactive”.

Consider `CC(=O)NCCCC[C@@H]1NC(=O)[C@H]2C[C@@H](C(=O)NCc3ccc(F)cc3)[C@@H](c3ccc(O)cc3)N2C1=O`, for which the growth inhibition call was “inactive”.

As for `COc1ccc(S(=O)(=O)Nc2ccc3c(c2)C(=O)N([C@H](C)CO)C[C@H](C)[C@H](CN(C)Cc2ccc(-c4ccccc4)cc2)O3)cc1`, the growth inhibition call is “inactive”.

As for `COc1nc(C)nc(Cl)c1NC1=NCCN1`, the growth inhibition call is “inactive”.

For the compound `O=C(Nc1ccc2ccccc2c1)c1ccc(Cl)cc1Cl`, the growth inhibition call is “inactive”.

As to `C[C@H](CO)N1C[C@H](C)[C@H](CN(C)CC2CCCCC2)Oc2ccc(NC(=O)Nc3ccc(F)cc3)cc2CC1=O`, the growth inhibition call was “inactive”.

On to `C[C@@H]1CN([C@H](C)CO)C(=O)c2cc(NC(=O)Nc3cccc4ccccc34)ccc2O[C@H]1CN(C)C(=O)Nc1cccc2ccccc12`, for which the growth inhibition call was “inactive”.
